Assay results from PubChem BioAssay AID602310 (National Center for Advancing Translational Sciences (NCATS), 2012).
The campaign covered roughly 410,000 compounds. About 310 (0.076%) were called active. Inconclusive means that the source gave no clear call. Such entries were picked first, then a sample of the others. Calls follow the shape of the dose curve; as a rule, active = well fitted curve in the direction sought with a large enough effect; inconclusive = small, poorly fitted or top-dose-only effect; inactive = flat fitted curve, though single readings scatter. Potencies of inconclusive entries are doubtful fits and often do not repeat.
Also: nearly all actives have a fitted effect of over 60% in size.
Potency is read from the fitted curve at half-maximal effect; tags tell the direction and shape of the fitted curve.

The molecules below were run against DNA dC->dU-editing enzyme APOBEC-3G (Homo sapiens) (UniProt Q9HC16) (assay: qHTS for Inhibitors of Vif-A3G Interactions: qHTS). Details: HeLa A3G-eYFP + Vif (tagged APOBEC3G with the HIV-1 protein that degrades it), YFP fluorescence, overnight; series mostly up to 46.1 µM.
Chain of UniProt Q9HC16 (Q9HC16 whole entry, looked up): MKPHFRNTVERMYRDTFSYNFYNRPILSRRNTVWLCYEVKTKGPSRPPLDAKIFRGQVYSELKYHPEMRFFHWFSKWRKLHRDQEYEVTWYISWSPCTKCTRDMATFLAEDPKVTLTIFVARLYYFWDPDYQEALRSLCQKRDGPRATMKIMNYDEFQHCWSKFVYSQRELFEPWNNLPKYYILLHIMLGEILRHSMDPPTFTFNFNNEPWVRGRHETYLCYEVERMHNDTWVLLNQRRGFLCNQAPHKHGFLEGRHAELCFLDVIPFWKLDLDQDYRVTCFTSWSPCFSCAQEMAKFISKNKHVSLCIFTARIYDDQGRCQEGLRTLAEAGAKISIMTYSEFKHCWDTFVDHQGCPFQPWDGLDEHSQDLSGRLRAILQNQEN
Method in brief: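 HeLa cells stably expressing Vif and C-terminally eYFP-tagged A3G, seeded overnight at 37 deg C, then exposed to compound by pintool overnight at 37 deg C. Rise in yellow fluorescence (Ex 488/Em 500-530, Acumen) marks blocked Vif-driven A3G degradation.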
With `N#CC1(C#N)CC(C=O)=C(N)C1(C#N)CC(=O)C12CC3CC(CC(C3)C1)C2` (configuration not stated) the Potency was inconclusive: 25.1 µM [inhibitor, single point].
`COc1ccc(C(=O)c2ccc(N(C)C)cc2)c2ccccc12` was tested, and the Potency was inconclusive: 1.41 µM [inhibitor, partial curve, poor fit].
For `COc1cnc(-c2ccccn2)nc1Oc1ccccc1Cl`, the Potency was “inactive”.
`Cc1ccc2c(C(=O)CCl)c(C)[nH]c2c1` was tested, and the Potency was inconclusive: 15.8 µM [inhibitor, single point].
`CCOc1cc(/C=N/NC(=O)N/N=C/c2ccc(O)c(OCC)c2)ccc1O` was tested, and the Potency was inconclusive: 3.55 µM [inhibitor, full curve].
`O=C(N/N=C/c1cccc2ccccc12)c1cc2ccccc2o1` was tested, and the Potency was inconclusive: 14.1 µM [inhibitor, partial curve, poor fit].
In the case of `O=C(c1cccc(Cl)c1)N1CCN(Cc2ccncc2)CC1`, the Potency is reported as “inactive”.
`Nc1c(S(=O)(=O)c2ccccc2)c2nc3ccccc3nc2n1Cc1ccco1` was tested, and the Potency was “inactive”.
In the case of `O=C(NC(=S)Nc1ccccc1N1CCCC1)c1cccc(F)c1`, the Potency is reported as “inactive”.
For `CCCN1C(=O)S/C(=C/c2ccc(N3CCOCC3)o2)C1=O`, the Potency was inconclusive: 12.6 µM [inhibitor, partial curve, poor fit].
In the case of `COc1ccccc1N1CCN(C(=O)c2oc3ccc(F)cc3c2C)CC1`, the Potency is reported as inconclusive: 3.16 µM [inhibitor, full curve, poor fit].
With `COc1ccccc1N1CCN(C(=O)c2oc3ccc(Br)cc3c2C)CC1` the Potency was inconclusive: 2.51 µM [inhibitor, full curve, poor fit].
For `CCOC(=O)C1=C(C)Nc2ncnn2C1/C=C/c1ccccc1` (configuration not stated), the Potency was inconclusive: 12.6 µM [inhibitor, single point].
For `CCOC(=O)c1sc(NC(=O)CSc2ncccn2)nc1C`, the Potency was inconclusive: 35.5 µM [inhibitor, single point].
For `Cc1ccc(NC(=O)c2ccc([N+](=O)[O-])s2)cc1S(=O)(=O)N1CCOCC1`, the Potency was inconclusive: 12.6 µM [inhibitor, partial curve, poor fit].
For `Cc1ccc(CCNc2nc3c(S(=O)(=O)c4ccc(C)cc4)nnn3c3ccsc23)cc1`, the Potency was “inactive”.
For `CCOC(=O)c1ccccc1N1C(=O)CSC1=S`, the Potency was inconclusive: 35.5 µM [inhibitor, partial curve, poor fit].
With `COc1ccc(C(=O)N/N=C(\c2ccccc2)c2ccccn2)cc1` the Potency was inconclusive: 35.5 µM [inhibitor, partial curve, poor fit].
For `CC(C)(C)C(=O)N1CCN(c2ccc(NC(=O)c3ccc([N+](=O)[O-])o3)cc2)CC1`, the Potency was inconclusive: 25.1 µM [inhibitor, single point].
In the case of `Cc1ccc2cccc(NC(=O)c3ccc(-c4cc(Cl)ccc4Cl)o3)c2n1`, the Potency is reported as “inactive”.
`O=C(/C=C/c1ccc(OCc2ccccc2)c(OCc2ccccc2)c1)c1cccnc1` was tested, and the Potency was “inactive”.
In the case of `O=C(Nc1ccc(F)c(F)c1)c1cccnc1`, the Potency is reported as inconclusive: 22.4 µM [inhibitor, single point].
In the case of `COc1ccc(O)c(-c2cc(-c3cccc(Br)c3)n[nH]2)c1`, the Potency is reported as inconclusive: 22.4 µM [inhibitor, single point].
In the case of `CCCN1C(=O)/C(=C/C=C2\N(CC)c3ccccc3C2(C)C)SC1=S`, the Potency is reported as inconclusive: 2.82 µM [inhibitor, full curve, poor fit].
In the case of `COC(=O)c1ccc(Oc2cc(C)nc(-n3nc(C)cc3C)n2)cc1`, the Potency is reported as inconclusive: 0.562 µM [inhibitor, full curve, poor fit].
For `O=C(Cn1nc(Cc2cccnc2)c2ccccc2c1=O)Nc1cccc(C(F)(F)F)c1`, the Potency was “inactive”.
In the case of `CCCCn1nc(NC(=O)c2cccs2)c2cc3ccccc3nc21`, the Potency is reported as “inactive”.
`CCOC(=O)C1(Cc2ccccc2)CCN(Cc2cccn2-c2nccs2)CC1` was tested, and the Potency was inconclusive: 5.62 µM [inhibitor, single point].
For `COc1ccc(C(=O)NC2CCCc3ccccc32)cc1Br` (configuration not stated), the Potency was inconclusive: 22.4 µM [inhibitor, partial curve, poor fit].
`O=C(C(=Cc1ccccc1)CN1CCCCC1)c1ccccc1` was tested, and the Potency was inconclusive: 2.82 µM [inhibitor, full curve, poor fit].
With `COc1cc(/C=C2/SC(=Nc3ccc(O)cc3)NC2=O)ccc1O` the Potency was inconclusive: 2.82 µM [inhibitor, full curve, poor fit].
With `Cc1cc(/C=C\c2ccc3cc(N(C)C)ccc3[n+]2C)c(C)n1-c1ccccc1` the Potency was active: 7.08 µM.
With `Cc1onc(-c2ccccc2)c1C(=O)NC(=S)NNC(=O)c1ccncc1` the Potency was “inactive”.
In the case of `N#C/C(=C/c1cn(-c2ccccc2)nc1-c1cccc(S(=O)(=O)N2CCOCC2)c1)C(=O)NCc1ccco1`, the Potency is reported as inconclusive: 3.98 µM [inhibitor, single point].
`CCOc1ccc2c(c1)sc(N)[n+]2Cc1cc(C)cc2cccnc12` was tested, and the Potency was inconclusive: 1.26 µM [inhibitor, full curve, poor fit].
For `COc1cc(/C=N/NC(=O)c2ccccc2O)ccc1OCC(=O)Nc1ccccc1`, the Potency was inconclusive: 35.5 µM [inhibitor, single point].
In the case of `O=C(N/N=C/c1cccnc1)c1cc(-c2ccc(Br)cc2)nc2ccccc12`, the Potency is reported as inconclusive: 2.82 µM [inhibitor, full curve, poor fit].
`CSc1nn(Cc2ccc(Br)cc2)c(N(C(C)=O)C(C)=O)c1S(=O)(=O)c1ccccc1` was tested, and the Potency was inconclusive: 31.6 µM [inhibitor, single point].
For `CCOc1ccc(CNC(=O)C2CCN(c3nnc(C)c4c(C)n(-c5ccc(C)cc5)nc34)CC2)cc1`, the Potency was inconclusive: 25.1 µM [inhibitor, single point].
For `CC(=O)c1ccc(NC(=O)C2CCC(CNS(=O)(=O)c3ccc4c(c3)CCCC(=O)N4)CC2)cc1` (configuration not stated), the Potency was “inactive”.
In the case of `C=CCN=C1S/C(=C\c2ccc(N(C)C)cc2)C(=O)N1CC=C`, the Potency is reported as inconclusive: 15.8 µM [inhibitor, single point].
`Cc1ccc(-c2csc(NC(=O)CN3CC(C)OC(C)C3)n2)cc1` (configuration not stated) was tested, and the Potency was inconclusive: 11.2 µM [inhibitor, partial curve, poor fit].
In the case of `O=C(O)c1cccc(N2C(=O)c3ccc(C(=O)c4cccc([N+](=O)[O-])c4)cc3C2=O)c1`, the Potency is reported as “inactive”.
With `Nc1c(C(=O)Nc2ccc(Br)cc2)sc2nc(-c3ccco3)ccc12` the Potency was inconclusive: 22.4 µM [inhibitor, single point].
In the case of `O=S(=O)(c1cccc(Cl)c1)c1nnn2c1nc(NC1CCCCCC1)c1sccc12`, the Potency is reported as “inactive”.
`COC(=O)c1c(C)[nH]c(-c2csc(N)n2)c1C` was tested, and the Potency was inconclusive: 22.4 µM [inhibitor, single point].
`O=C(COc1ccc(-c2ccccc2)cc1)N1CCN(S(=O)(=O)Cc2ccccc2)CC1` was tested, and the Potency was inconclusive: 5.62 µM [inhibitor, single point].
With `COC(=O)/C(=C1/Oc2cc(C)oc(=O)c2S1)C(F)(F)F` the Potency was inconclusive: 22.4 µM [inhibitor, single point].
For `CCN(CC)c1ccc(NC(=O)C2COc3ccc(OC)cc3C2)c(C)c1` (configuration not stated), the Potency was inconclusive: 1 µM [inhibitor, full curve, poor fit].
With `CCN(CC(=O)Nc1ccc2c(c1)OCCO2)C(=O)c1ccc(C)c(S(=O)(=O)N2CCOCC2)c1` the Potency was “inactive”.
In the case of `NNC(=O)c1oc2nc(-c3ccccc3)cc(-c3ccco3)c2c1N`, the Potency is reported as inconclusive: 10 µM [inhibitor, partial curve, poor fit].
With `C(=NNc1nnn(Cc2ccccc2)n1)c1ccccc1` the Potency was inconclusive: 2.82 µM [inhibitor, full curve, poor fit].
`CCSc1ncc(Cl)c(C(=O)N2CCN(c3ccc(OC)cc3)CC2)n1` was tested, and the Potency was “inactive”.
In the case of `CCOc1ccc(C=Nc2ccc(/C=C/c3ccnc4ccccc34)cc2)cc1OCC`, the Potency is reported as “inactive”.
For `NS(=O)(=O)Nc1c(Br)cc(Br)c2cccnc12`, the Potency was “inactive”.
With `COC(=O)c1cc(C(=O)N2CCN(c3cccc(C)c3C)CC2)cc([N+](=O)[O-])c1` the Potency was inconclusive: 1 µM [inhibitor, full curve, poor fit].
With `Cc1ccc(C)c(/C=C/C(=O)c2ccccc(=O)c2O)c1` the Potency was inconclusive: 5.62 µM [inhibitor, partial curve].
`Cc1nnc(SCC(=O)NCc2ccccc2F)c2nn(-c3ccc(Cl)cc3)c(C)c12` was tested, and the Potency was inconclusive: 7.08 µM [inhibitor, partial curve, poor fit].
`O=C(c1ccco1)N1CCN(C(=O)c2sccc2-c2ccccc2)CC1` was tested, and the Potency was “inactive”.
In the case of `COc1cc(-c2cc(NC=O)c3ncc(-c4ccc(C(C)=O)cc4)n3c2)cc(OC)c1OC`, the Potency is reported as inconclusive: 12.6 µM [inhibitor, partial curve].
`COc1ccc(C(=O)NNC(=S)NC(=O)c2ccco2)cc1` was tested, and the Potency was “inactive”.
With `COc1ccc(-n2nc3c(N4CCC(C(=O)NCC(C)c5ccccc5)CC4)nnc(C)c3c2C)cc1` (configuration not stated) the Potency was inconclusive: 35.5 µM [inhibitor, single point].
In the case of `COc1ccc(NC(=S)Nc2cccc(S(=O)(=O)N3CCCCC3)c2)cc1`, the Potency is reported as inconclusive: 6.31 µM [inhibitor, single point].
In the case of `COc1ccc(Cl)cc1N1CC(C(=O)Nc2nccs2)CC1=O` (configuration not stated), the Potency is reported as inconclusive: 11.2 µM [inhibitor, partial curve].
In the case of `CC1=CC(=C(c2ccc(N)cc2)c2ccc(N)cc2)C=CC1=N`, the Potency is reported as “inactive”.
With `COc1ccccc1CNC(=O)c1cccc(Nc2nc3ccccc3n3nnnc23)c1` the Potency was “inactive”.
For `COc1ccc(NC(=O)CSC2=C(C#N)C(c3ccco3)C3=C(CCCC3=O)N2)c(OC)c1` (configuration not stated), the Potency was “inactive”.
